{
  "source": "paper PMC12136788",
  "binders": {"B1": {"name": "chr8:95500983:95500984:-_ENSG00000164944_ENST00000437199|hu_hu|hu_hu_hu_mus_True|1_78 (ssRNA)", "RNA": "GGGAGUUCUACAGUCCGACGAUCAGAACACAUCUAUCGAGUAAAGGACCGUACAUGGACGACCUCUCCACUGCCUCCACUAACAAACUUUCCUCUCGAGCCUCCACUGCCGCUAUUUGUACUAGCCCAGGACGGUCCCAAGUCCAACAGAGGAUUGAGCAUCA"}, "B2": {"name": "60553095_60555315_1633_CDS_ENSMUSG00000026014_ENSMUST00000140485|mouse|control|control (ssRNA)", "RNA": "GGGAGUUCUACAGUCCGACGAUCCUGAUGCAGGGUCCUUGCAUCAUCACAGCAAAGGUACUUGAUAUACUGAGACUUCUUCUGGAUCUGUGGGUGCUUUAAUGCCAGGCAGCAGUCUGUGGGUGCUUUGUAUUUGUUCCGAUACAACAGAGGAUUGAGCAUCA"}, "B3": {"name": "chr18:35732044:35732045:+_ENSMUSG00000037236_ENSMUST00000166793|perfect_dup|FALSE|FALSE (ssRNA)", "RNA": "GGGAGUUCUACAGUCCGACGAUCGAUUUGGGGCAAAUUCUCAGGAGUAAUCUUGUCCUCUGGAUAACGACUCAGUUCAUCUAAGUCUCUAGCAGACAGACCAAAGCUGGCCAAAAUGUUACUGGCCUGGUCUGCAUCUCCACGCAACAGAGGAUUGAGCAUCA"}, "B4": {"name": "92600466_92600665_606_CDS_ENSG00000165934_ENST00000298875|human|control|control (ssRNA)", "RNA": "GGGAGUUCUACAGUCCGACGAUCCUGUAUUUUAUCAAAGGCUGCAUCCACAUCAUCUAAUGUAAAGAGUGUAAAAUCUUCUGUAUUGUGUCGAGACUGAUAAAGAUCAUACAUGAACAUCUGUCCCAUUUUAUAAACAGGAAUCAACAGAGGAUUGAGCAUCA"}, "B5": {"name": "chr10:33214929:33214930:-_ENSG00000150093_ENST00000302278|hu_hu|hu_hu_hu_mus_True|18_108 (ssRNA)", "RNA": "GGGAGUUCUACAGUCCGACGAUCAACAAGUUCAUUAAAAAACUCUCCUCUGUCAGUAAGACUAAGCACAUUUUUGUAGCUAAAUGGGCUGGUGCAGUUUUGUUCACUUGUACAAGGGUUCCUGAGCUUUGCUGGGGUUGUGCUCAACAGAGGAUUGAGCAUCA"}, "B6": {"name": "chr7:75932113:75932114:+_ENSG00000106211_ENST00000248553|hu_hu|hu_hu_hu_mus_False|78_88 (ssRNA)", "RNA": "GGGAGUUCUACAGUCCGACGAUCCUGCGACCACUCAUCGGGCAACCGGGGCAGCCCGAAGGCCUGGUCGAAGAGGCGGCUGUGUGCAGGGUACCAGUCCCGGAAUGGUUCCCAGCUCGGGCUCCGCAGCAGCGAGAAGGGCACCAACAGAGGAUUGAGCAUCA"}, "B7": {"name": "chr1:39494564:39494565:+_ENSG00000168653_ENST00000372967|hu_hu|hu_hu_hu_mus_True|28_68 (ssRNA)", "RNA": "GGGAGUUCUACAGUCCGACGAUCAUGCAUUCGCCUCAUCGUUUUGUACCGAAGCAAGCACUCUUCGAAAUCAUCAUACUCUAUCUUGCACUCCUUUUUCGCCCGGGUAUAACCGAUCCCGUGUGCACACUCUAUCCACUCUUUCAACAGAGGAUUGAGCAUCA"}, "B8": {"name": "chr15:64980993:64980994:-_ENSG00000180304_ENST00000326005|hu_mus|FALSE|FALSE (ssRNA)", "RNA": "GGGAGUUCUACAGUCCGACGAUCAAACCAUAAACAUCACAUCUGGCCGAGAGGGGACACAGGGAUGACCUGGACGCACAAUCUCAAAGCCCAAGAAGCUGAACGUCUUCAGGAGUGGAGCUCUGUCUUCCCGGCCCUUCCUGACAACAGAGGAUUGAGCAUCA"}, "B9": {"name": "chr11:77336104:77336105:-_ENSG00000074201_ENST00000525064|hu_mus|hu_hu_hu_mus_False|8_108 (ssRNA)", "RNA": "GGGAGUUCUACAGUCCGACGAUCCUCGCACAUUGCAGUGAACAUCGCCUCCAAUGCUGACUUAUCACUGGGCACAAAUCGAAAUUCAGAAAUGGGUUCAACAUCAUCAUUGUCUUCCUCAUCUUCAUCAUCAGCAAGUUCUUUCAACAGAGGAUUGAGCAUCA"}, "B10": {"name": "68598220_68598340_1625_CDS_ENSG00000184939_ENST00000398253|human|control|control (ssRNA)", "RNA": "GGGAGUUCUACAGUCCGACGAUCCUCUCCAGUGUGGGUUCUCUCAUGUUGAGUAAGCGAUGAGCGUCGACUAAAGGCUUCUCCACACUCAUUACAUUCAUAGGGUUUCUCUCCAGUAUGAAUUCUGUGAUGCUCUAUGAAACUCAACAGAGGAUUGAGCAUCA"}, "B11": {"name": "32336899_32338655_989_CDS_ENSMUSG00000027665_ENSMUST00000108243|mouse|control|control (ssRNA)", "RNA": "GGGAGUUCUACAGUCCGACGAUCCCUCCCCAGCAUUAUACAGCUUCUUAUGUACUUGUACUGACUCAGAGGGUACUUUUCCAGGAAGUAUUCGUCACAGCCACACACUUUCAGAAUAUACUUGCCCUGAUAUUCUAAGACACACAACAGAGGAUUGAGCAUCA"}, "B12": {"name": "chr11:70698419:70698420:+_ENSMUSG00000020817_ENSMUST00000076270|mus_hu|FALSE|FALSE (ssRNA)", "RNA": "GGGAGUUCUACAGUCCGACGAUCUUUCAUAACAGCCUGAAGUGAAGCAACUUCUUCUCUCCACUGUCUUUUCACUUCAUCUAUAGCUUCUUGCUUGGUGUUCUCAGAGACUGUGGCAAUCGCCUUAAUAUUCUCCAUCUCUGCCAACAGAGGAUUGAGCAUCA"}, "B13": {"name": "chr11:60965468:60965469:-_ENSMUSG00000042506_ENSMUST00000041683|mus_hu|FALSE|FALSE (ssRNA)", "RNA": "GGGAGUUCUACAGUCCGACGAUCGUCUCCAACCACAGCACAGUCAUUGGAAUUUUUUUCUUCAUUUUUAUUUUCAAACUUACAGUAAACAAAACAAUCACUUAAAUUGUCAAAAGAACAGCAAUUUUACACAAUGAAGAGCAUCAACAGAGGAUUGAGCAUCA"}, "B14": {"name": "chr10:33190432:33190433:-_ENSG00000150093_ENST00000302278|hu_mus|hu_hu_hu_mus_True|8_78 (ssRNA)", "RNA": "GGGAGUUCUACAGUCCGACGAUCUACAUUUUCCAAACCUGCAUGUGAAUAAAACCCUGGCAAUAUUGCCCCAAAACUACCCUACUGUGACUAAGAUGCUGCUGCUGUGAGCUUGGUGUUGCAAAAUUUUGCACGGGAGGAUUCCAACAGAGGAUUGAGCAUCA"}, "B15": {"name": "chr17:63010574:63010575:-_ENSG00000120063_ENST00000439174|hu_mus|motif|central (ssRNA)", "RNA": "GGGAGUUCUACAGUCCGACGAUCGAAGCAUUCCACCAGAAACUUUUGGACGUCUCUUAAGCAGUGGGGGUCCCCUUCAAAUUCGGGGAAAUAGUCUUUGAUGCUAACAACUUGCACUUUCUCCUCGAGCAAGUCUGUCUUGUUCAACAGAGGAUUGAGCAUCA"}, "B16": {"name": "chrX:77158196:77158197:+_ENSG00000131174_ENST00000481445|hu_hu|motif|central (ssRNA)", "RNA": "GGGAGUUCUACAGUCCGACGAUCUCCGACUUGUGUUGCUACAUAUGUCCAUGUAACAAUACAGAAAGUGGCUCCACGGGCGGAUACAGCAUUACCGUAUUUGUCAUGAAAAUCAGGUGUACGUUUCUGGUGGCUCUGCCUUGCCAACAGAGGAUUGAGCAUCA"}, "B17": {"name": "chr1:66486420:66486421:+_ENSMUSG00000015222_ENSMUST00000077355|mus_hu|motif|central (ssRNA)", "RNA": "GGGAGUUCUACAGUCCGACGAUCUAAUGUAUUUUUUUUAAAUAGGGAGAGAACCCUGCUAACAUCUACUUUCACAUAUCGGAAAUUGCAACACCAAAGGGUGCAGGAGACACAGAUACUGUGAAUAAAGAAGUAUAAUAUUCACAACAGAGGAUUGAGCAUCA"}, "B18": {"name": "chr1:154525626:154525627:-_ENSG00000160714_ENST00000292211|hu_mus|FALSE|FALSE (ssRNA)", "RNA": "GGGAGUUCUACAGUCCGACGAUCAUCAUCUUCAGACUUCUUGCCCUCGGCUGGCUCUUCCUCUUUCAUUUCAUAGUGAUCUAGGUCUUCUGUAUCCUCAGGCAUCUCUUCAUCUUCAUCUUCUGAAGACACUUCUUCCUGCGUCAACAGAGGAUUGAGCAUCA"}, "B19": {"name": "169104512_169104632_79_3pUTR_ENSG00000198648_ENST00000355999|human|control|control (ssRNA)", "RNA": "GGGAGUUCUACAGUCCGACGAUCAGUUGACGAGCGGGAUACCUACAUGGUGUCCCUUUGCAAGACGCCAGUUAGAAAAUAACCCAAGUUGUAAGUUUCCGGCGCUUUACUUGCCGGUAUCCCUUUCCCACCUUGCCUAAUCUACAACAGAGGAUUGAGCAUCA"}, "B20": {"name": "chr19:45826695:45826696:-_ENSMUSG00000025220_ENSMUST00000026243|mus_mus|FALSE|FALSE (ssRNA)", "RNA": "GGGAGUUCUACAGUCCGACGAUCACCAAGUAUAACCACAUCCUUUGGAAAUCCUUCCAUUUUUGCAAUUUCAAAACAGCCUAACUUGCUGUAAAAUUCCAGAAUCCUUUUAUCAUCUGGUCUUACUUCACAGAAAGCCCCCCGCAACAGAGGAUUGAGCAUCA"}, "B21": {"name": "219457425_219458945_1033_3pUTR_ENSG00000144580_ENST00000542068|human|control|control (ssRNA)", "RNA": "GGGAGUUCUACAGUCCGACGAUCGUUCUUCACCAGUUGUGCAAGCCAGCGUUUCGUGGUGGUGUCAUCUUUUAGCACCUGGGCGAAGGUUGUGUCUUUCAGCUGGUCAGGGAGGCACUGUCUGAGUGCUUCACGUGCCCUGGGCAACAGAGGAUUGAGCAUCA"}, "B22": {"name": "100421932_100422052_550_3pUTR_ENSMUSG00000072294_ENSMUST00000097079|mouse|control|control (ssRNA)", "RNA": "GGGAGUUCUACAGUCCGACGAUCACUGACUGUACCACCACAGGGAUUCGAUGAACAUGACUGAGUUUGUUAGACUGUAAGUUCAUGGGACUGGAAGGUGGGACCGGAUGGAUGAUGUGCAAGAACUGCUGGCCGCCCACGCCACAACAGAGGAUUGAGCAUCA"}},
  "note": "This is one part of the list.",
  "data": [
    {"biological_target": "T1, UNK ZnF1-3 (human, UniProt Q9C0B0 31-174)", "T1 sequence": "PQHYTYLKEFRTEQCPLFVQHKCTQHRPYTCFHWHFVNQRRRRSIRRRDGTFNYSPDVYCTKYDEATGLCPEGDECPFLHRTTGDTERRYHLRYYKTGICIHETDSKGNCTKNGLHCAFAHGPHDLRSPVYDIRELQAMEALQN", "assay": "nsRBNS (natural sequence RNA bind-n-seq); RBNS binding buffer (assumed for nsRBNS): 25 mM Tris pH 7.5, 150 mM KCl, 3 mM MgCl2, 0.01% Triton X-100, 500 ug/ml BSA, 20 U/ml SUPERase-In, 4 C; UNK is unkempt and MSI1 is Musashi-1; names of the RNAs are library labels; protein concentration not given here; high values mean tight binding", "units": {"binding signal": "enrichment R"}, "values": [
      {"binder": "B1", "binding signal": 1.3},
      {"binder": "B2", "binding signal": 0.741},
      {"binder": "B3", "binding signal": 0.399},
      {"binder": "B4", "binding signal": 1.01},
      {"binder": "B5", "binding signal": 1.34},
      {"binder": "B6", "binding signal": 1.22},
      {"binder": "B7", "binding signal": 0.701},
      {"binder": "B8", "binding signal": 1.27},
      {"binder": "B9", "binding signal": 0.953},
      {"binder": "B10", "binding signal": 0.54},
      {"binder": "B11", "binding signal": 1.39},
      {"binder": "B12", "binding signal": 0.273},
      {"binder": "B13", "binding signal": 1.32},
      {"binder": "B14", "binding signal": 1.33},
      {"binder": "B15", "binding signal": 0.43},
      {"binder": "B16", "binding signal": 0.681},
      {"binder": "B17", "binding signal": 2.04},
      {"binder": "B18", "binding signal": 0.33},
      {"binder": "B19", "binding signal": 0.786},
      {"binder": "B20", "binding signal": 0.825},
      {"binder": "B21", "binding signal": 0.359},
      {"binder": "B22", "binding signal": 1.34}
    ]}
  ]
}
